Where “and” joins values, the source holds several entries; their conditions need not be identical. Equal entries are not always repeated. Screen size: about 420,000 compounds; about 50,000 (12%) were called active. The shares of active, inactive and inconclusive entries below differ from those in the screen. Calls come from the whole dose curve; as a rule, active = well fitted inhibition curve with a large enough effect; inconclusive = small, poorly fitted or top-dose-only effect; inactive = flat fitted curve, though single readings scatter. A potency beside an inconclusive call is a rough fit, not a confirmed value.
Assay: qHTS for Inhibitors of human tyrosyl-DNA phosphodiesterase 1 (TDP1): qHTS in cells in presence of CPT; note: nearly all actives have a fitted effect of over 55% in size
Conditions: chicken DT40 Tdp1-/-;hTDP1 cells + 20 nM CPT, ATP luminescence, 48 h; series mostly up to 46.2 µM
How it was run: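 Chicken DT40 Tdp1-/- cells complemented with human TDP1, 400 cells/well, exposed to compounds plus 20 nM camptothecin for at least 48 h at 37 C; viability read as ATP content by CellTiter-Glo luminescence.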
Potency is the fitted concentration of half-maximal effect; tags give direction and shape of the fitted curve.

**Q.** For `COCCNc1ncnc2ccc(-c3ccccc3OC)cc12`, which Potency is on record?
**A.** inconclusive: 29.1 µM [inhibitor, single point]

**Q.** For `O=C(c1cc(-c2ccc(Cl)cc2)n(-c2cc(Cl)ccc2Cl)n1)N1CCOCC1`, which Potency is on record?
**A.** inconclusive: 18.4 µM [inhibitor, single point]

**Q.** With `CCOc1cc(N2CCOCC2)c(OCC)cc1NC(=O)C1CC(=O)N(c2ccccc2OCC)C1` (stereo not drawn) as the compound, how does the Potency read?
**A.** inactive

**Q.** With `O=C(Nc1nccs1)C1Cc2ccccc2CN1S(=O)(=O)c1ccc(F)cc1` (stereo not drawn) as the compound, how does the Potency read?
**A.** inconclusive: 29.1 µM [inhibitor, single point]

**Q.** With `Cc1ccc(S(=O)(=O)N2C[C@H]3n4c(=O)ccc(=O)n4C[C@H](OC(=O)NCC4CCCCC4)[C@@]3(O)C2)cc1` as the compound, how does the Potency read?
**A.** active: 2.59 µM

**Q.** Which Potency does the source give for `COc1cc(-c2coc3c(C(=O)NC4CCCCC4)cccc23)ccc1O` here?
**A.** active: 18.4 µM

**Q.** With `COc1ccc(NCc2nc3ccccc3n2CCOc2ccccc2)cc1` as the compound, how does the Potency read?
**A.** inconclusive: 23.1 µM [inhibitor, single point]

**Q.** With `COc1cc2nc(SCc3c(C)noc3C)n(CCC3=CCCCC3)c(=O)c2cc1OC` as the compound, how does the Potency read?
**A.** inconclusive: 23.1 µM [inhibitor, single point]

**Q.** For `O=C(NCc1ccco1)C1CCCN(S(=O)(=O)c2cccc3nonc23)C1` (stereo not drawn), which Potency is on record?
**A.** inactive

**Q.** With `CC(=O)c1cccc(NC(=O)CSc2nc(=O)n(Cc3cccnc3)c3c2CCC3)c1` as the compound, how does the Potency read?
**A.** inactive

**Q.** With `Cc1cccc(N(C(=O)Cn2nnc3ccccc32)C(C(=O)NC(C)(C)C)c2ccsc2)c1C` (stereo not drawn) as the compound, how does the Potency read?
**A.** inconclusive: 29.1 µM [inhibitor, single point]

**Q.** With `Oc1c(C(c2ccccc2F)N2CCCCC2)sc2nc(-c3ccco3)nn12` (stereo not drawn) as the compound, how does the Potency read?
**A.** inactive

**Q.** For `Cc1ccc(C(=O)N(C)CC(=O)Nc2cccc(C)c2C)o1`, which Potency is on record?
**A.** inactive

**Q.** Which Potency does the source give for `Cc1cnc(CNc2ncnc3ccc(-c4c(C)noc4C)cc23)cn1` here?
**A.** inconclusive: 18.4 µM [inhibitor, single point]

**Q.** Which Potency does the source give for `Cc1cc(C)c2c(CN(C)Cc3ccccc3)cc(=O)oc2c1` here?
**A.** inconclusive: 20.6 µM [inhibitor, single point]

**Q.** For `O=C(Nc1ccccc1N1CCN(C(=O)c2ccc(Cl)cc2)CC1)c1ccc2c(c1)OCO2`, which Potency is on record?
**A.** inactive

**Q.** With `C=C(CN(C)C)C(=O)c1cc(C)ccc1C` as the compound, how does the Potency read?
**A.** active: 0.58 µM

**Q.** Which Potency does the source give for `CC1/C(=N/O)CC(c2ccco2)NC1c1ccco1` (stereo not drawn) here?
**A.** inconclusive: 29.1 µM [inhibitor, single point]

**Q.** With `O=c1[nH][nH]c2c1C(C1CCCCC1)OC(C1CCCCC1)C2` (stereo not drawn) as the compound, how does the Potency read?
**A.** inconclusive: 29.1 µM [inhibitor, single point]

**Q.** With `CCCCc1nc2ccccc2n2c(-c3ccc(OC)cc3)c3c(=O)n(C)c(=O)n(C)c3c12` as the compound, how does the Potency read?
**A.** inconclusive: 29.1 µM [inhibitor, single point]

**Q.** For `N#CCCn1cc(C(=O)Nc2ccccc2Br)c(-c2cc3ccccc3o2)n1`, which Potency is on record?
**A.** inconclusive: 29.1 µM [inhibitor, single point]

**Q.** With `Cc1ccc(S(=O)(=O)N2CCC(C(=O)OCCOc3cccc(C)c3)CC2)cc1` as the compound, how does the Potency read?
**A.** inactive

**Q.** Which Potency does the source give for `CCc1ccc(C(O)c2ncc(-c3ccccc3C)[nH]2)cc1` (stereo not drawn) here?
**A.** inconclusive: 20.6 µM [inhibitor, single point]

**Q.** With `Cc1cccc(-c2ccc([N+](=O)[O-])cc2CN2CCN(c3ncc(Cc4ccccc4)cn3)CC2)c1` as the compound, how does the Potency read?
**A.** active: 5.8 µM

**Q.** For `O=C(NCc1ccc(Cl)cc1)C1CCN(S(=O)(=O)c2ccc(N3CCCC3=O)cc2)CC1`, which Potency is on record?
**A.** active: 10.3 µM

**Q.** For `O=C(CCc1cn(Cc2ccccc2Cl)c2ccccc12)NC1CCCCC1`, which Potency is on record?
**A.** inconclusive: 29.1 µM [inhibitor, single point]

**Q.** Which Potency does the source give for `COCC#Cc1ccc2c(c1)O[C@@H](CN(C)S(=O)(=O)c1cccc(F)c1)[C@@H](C)CN([C@H](C)CO)S2(=O)=O` here?
**A.** inconclusive: 18.4 µM [inhibitor, single point]

**Q.** Which Potency does the source give for `CCCc1nn2c(=O)cc(CSCC(=O)Nc3cccc(OC)c3)nc2s1` here?
**A.** inactive

**Q.** For `COc1cc(OC)c(NC(=O)c2cc3ccccc3cc2O)cc1Cl`, which Potency is on record?
**A.** active: 10.3 µM

**Q.** With `Cc1cc(Cl)ccc1C(O)c1ncc(-c2ccccc2C(F)(F)F)[nH]1` (stereo not drawn) as the compound, how does the Potency read?
**A.** active: 25.9 µM

**Q.** For `CSc1ncccc1C(=O)OCC(=O)N(CC(C)C)c1c(N)n(Cc2ccccc2)c(=O)[nH]c1=O`, which Potency is on record?
**A.** inactive

**Q.** Which Potency does the source give for `O=C(NCc1nnc(SCC(=O)N2CCN(c3ccccc3)CC2)o1)c1c(F)cccc1Cl` here?
**A.** inactive

**Q.** For `CCNCc1ccc(OCc2cccs2)c(OCC)c1`, which Potency is on record?
**A.** inconclusive: 32.6 µM [inhibitor, partial curve, poor fit]

**Q.** Which Potency does the source give for `CO[C@H]1C[C@H](O[C@@H]2/C(C)=C/C[C@@H]3C[C@@H](C[C@]4(CC[C@H](C)[C@@H](C5CCCCC5)O4)O3)OC(=O)[C@@H]3C=C(C)/C(=N/O)[C@H]4OC/C(=C\C=C\[C@@H]2C)[C@]43O)O[C@@H](C)[C@@H]1O` here?
**A.** inactive

**Q.** With `Cc1ccccc1Nc1c(-c2ccc(Cl)s2)nc2c(C)cccn12` as the compound, how does the Potency read?
**A.** inconclusive: 18.4 µM [inhibitor, single point]

**Q.** Which Potency does the source give for `CC1CCCCN1S(=O)(=O)c1ccc(C(=O)Nc2ccccc2-c2nc3ccccc3[nH]2)cc1` (stereo not drawn) here?
**A.** active: 20.6 µM

**Q.** Which Potency does the source give for `Cc1cccc(C(=O)OCC(=O)N2CCCCCC2)c1C` here?
**A.** inconclusive: 32.6 µM [inhibitor, single point]

**Q.** Which Potency does the source give for `Cc1ccc(N2CC(C(=O)Nc3nnc(SCC(=O)Nc4nc(C)cs4)s3)CC2=O)cc1` (stereo not drawn) here?
**A.** inconclusive: 18.4 µM [inhibitor, single point]

**Q.** Which Potency does the source give for `COc1ccc2[nH]c(=O)c(CNc3cc(C)ccc3C)cc2c1` here?
**A.** active: 14.6 µM

**Q.** For `CC(C)(C)Cc1c(-c2ccc(F)cc2)nc2ccc(Cl)cn12`, which Potency is on record?
**A.** inconclusive: 29.1 µM [inhibitor, single point]

**Q.** Which Potency does the source give for `CCCn1c(N)c(C(=O)CSc2nc(C3CC3)n(-c3ccccc3)n2)c(=O)[nH]c1=O` here?
**A.** inactive

**Q.** For `COc1cccc(C(C)(O)c2nc(-c3cc4ccccc4o3)cs2)c1` (stereo not drawn), which Potency is on record?
**A.** active: 16.4 µM

**Q.** For `COc1ccc(CNC(=O)c2cc(-c3cccc(Cl)c3)on2)cc1`, which Potency is on record?
**A.** inconclusive: 25.9 µM [inhibitor, single point]

**Q.** With `CC(C)(C)C1CCc2c(sc(NC(=O)C3CCCO3)c2C(N)=O)C1` (stereo not drawn) as the compound, how does the Potency read?
**A.** inconclusive: 29.1 µM [inhibitor, single point]

**Q.** Which Potency does the source give for `Cc1cccc2c(=O)c(-c3ccc4c(c3)OCO4)c(NC(=O)c3ccco3)oc12` here?
**A.** inconclusive: 29.1 µM [inhibitor, single point]

**Q.** Which Potency does the source give for `CC(C)(C)OC(=O)N1CCC(c2c(C(=O)NCCCN3CCc4ccccc4C3)cnn2-c2ccccc2)CC1` here?
**A.** inconclusive: 18.4 µM [inhibitor, single point]

**Q.** With `Cc1oc(S(=O)(=O)N2CCCCC2)cc1NC(=O)Nc1ccccc1` as the compound, how does the Potency read?
**A.** inconclusive: 18.4 µM [inhibitor, single point]

**Q.** For `Cc1ccccc1C1=NC(C(F)(F)F)(C(F)(F)F)c2c(n(-c3ccc(F)cc3)c(=O)[nH]c2=O)N1`, which Potency is on record?
**A.** active: 18.4 µM

**Q.** For `CCOC(=O)c1ccc(NC(=S)NCC(O)c2ccccc2)cc1` (stereo not drawn), which Potency is on record?
**A.** inconclusive: 13 µM [inhibitor, partial curve, poor fit]

**Q.** For `COC(=O)c1c(NC(=O)C2CC(C)=C(C)CC2C(=O)O)sc2c1CCCCC2` (stereo not drawn), which Potency is on record?
**A.** inconclusive: 14.6 µM [inhibitor, partial curve, poor fit]

**Q.** Which Potency does the source give for `O=C(COc1cccnc1[N+](=O)[O-])N1CCC(Cc2ccccc2)CC1` here?
**A.** inconclusive: 10.3 µM [inhibitor, partial curve]

**Q.** For `COc1ccc(OC)c(NC(=O)CCc2c(C)nn(-c3ccc(N4CCCC4)nn3)c2C)c1`, which Potency is on record?
**A.** active: 20.6 µM

**Q.** With `COCCNC(=S)N1CCN(c2nc(-c3ccc(F)cc3)cs2)CC1` as the compound, how does the Potency read?
**A.** inconclusive: 16.4 µM [inhibitor, partial curve]

**Q.** Which Potency does the source give for `Cc1c(CCC(=O)O)c(=O)oc2c(C)c3occ(-c4ccc(Br)cc4)c3cc12` here?
**A.** inconclusive: 29.1 µM [inhibitor, single point]

**Q.** With `CC1CCC(C(C)C)C(OCC(O)CNC(C)(C)C)C1` (stereo not drawn) as the compound, how does the Potency read?
**A.** inconclusive: 20.6 µM [inhibitor, single point]

**Q.** With `Cc1ccc(NC(=O)c2ccc3c(c2)C(=O)N(c2cc(C)ccc2C)C3=O)nc1` as the compound, how does the Potency read?
**A.** inconclusive: 18.4 µM [inhibitor, single point]

**Q.** Which Potency does the source give for `COc1cc(NC(=O)N2CCc3nc(Nc4cc(Cl)cc(Cl)c4)ncc3C2)cc(OC)c1OC` here?
**A.** active: 23.1 µM

**Q.** Which Potency does the source give for `COc1ccc(-c2noc(CSc3nnc(-c4ccncc4)n3-c3ccc(F)cc3)n2)cc1OC` here?
**A.** inconclusive: 29.1 µM [inhibitor, single point]

**Q.** With `COc1ccc(CNC(=O)C2CCC(CNS(=O)(=O)c3ccccc3)CC2)cc1` (stereo not drawn) as the compound, how does the Potency read?
**A.** inactive

**Q.** For `CC(C)CNC(=S)N1CCC(C(=O)c2ccc(F)cc2)CC1`, which Potency is on record?
**A.** inconclusive: 9.2 µM [inhibitor, partial curve]

**Q.** For `COc1ccc(-c2c(C(C)=O)c(C)nc3sc4c(=O)[nH]nnc4c23)cc1`, which Potency is on record?
**A.** inconclusive: 29.1 µM [inhibitor, single point]

**Q.** With `Cc1cccc(N(C)S(=O)(=O)c2ccc3c(c2)CCC(=O)N3)c1` as the compound, how does the Potency read?
**A.** inactive

**Q.** Which Potency does the source give for `O=C1N(CC(=O)N2CCc3ccccc32)CCN1Cc1ccccc1Cl` here?
**A.** inactive

**Q.** With `O=C(Nc1ccc2c(c1)CCCN2C(=O)c1cccs1)c1c(F)cccc1F` as the compound, how does the Potency read?
**A.** inactive and inconclusive: 18.4 µM [inhibitor, partial curve]

**Q.** Which Potency does the source give for `Nc1c(N=Nc2ccccc2F)c(=O)[nH]n1-c1ccccc1` here?
**A.** inactive

**Q.** For `COCc1c(C(=O)NC2CCCCCC2)cnn1-c1nccc(-c2cc(C)sc2C)n1`, which Potency is on record?
**A.** inconclusive: 25.9 µM [inhibitor, single point]

**Q.** Which Potency does the source give for `Nc1ccc(N2CCOCC2)c(S(=O)(=O)Nc2ccccc2Cl)c1` here?
**A.** inactive

**Q.** Which Potency does the source give for `CCN(C(=O)c1ccc(Cl)c(S(=O)(=O)Nc2c(C)n(C)n(-c3ccccc3)c2=O)c1)c1ccccc1` here?
**A.** inactive

Source: PubChem BioAssay AID686979 (National Center for Advancing Translational Sciences (NCATS), 2013)
